Consider 24 compounds from publication PMC4336329 (PLoS ONE, 2015).

About 14,000 (4.5%) of roughly 310,000 compounds showed an effect of 50% or more. Effects have a minus sign here. This is one part of the list.
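Further: peak tail current of the secondary pulse compared with the same well before compound.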

The assay deals with human ether-à-go-go-related gene (hERG) potassium channel (human, UniProt Q12809). Nature of the assay: primary screen, population patch clamp on CHO cells stably expressing hERG.
human ether-à-go-go-related gene (hERG) potassium channel, sequence (Q12809 whole entry, looked up): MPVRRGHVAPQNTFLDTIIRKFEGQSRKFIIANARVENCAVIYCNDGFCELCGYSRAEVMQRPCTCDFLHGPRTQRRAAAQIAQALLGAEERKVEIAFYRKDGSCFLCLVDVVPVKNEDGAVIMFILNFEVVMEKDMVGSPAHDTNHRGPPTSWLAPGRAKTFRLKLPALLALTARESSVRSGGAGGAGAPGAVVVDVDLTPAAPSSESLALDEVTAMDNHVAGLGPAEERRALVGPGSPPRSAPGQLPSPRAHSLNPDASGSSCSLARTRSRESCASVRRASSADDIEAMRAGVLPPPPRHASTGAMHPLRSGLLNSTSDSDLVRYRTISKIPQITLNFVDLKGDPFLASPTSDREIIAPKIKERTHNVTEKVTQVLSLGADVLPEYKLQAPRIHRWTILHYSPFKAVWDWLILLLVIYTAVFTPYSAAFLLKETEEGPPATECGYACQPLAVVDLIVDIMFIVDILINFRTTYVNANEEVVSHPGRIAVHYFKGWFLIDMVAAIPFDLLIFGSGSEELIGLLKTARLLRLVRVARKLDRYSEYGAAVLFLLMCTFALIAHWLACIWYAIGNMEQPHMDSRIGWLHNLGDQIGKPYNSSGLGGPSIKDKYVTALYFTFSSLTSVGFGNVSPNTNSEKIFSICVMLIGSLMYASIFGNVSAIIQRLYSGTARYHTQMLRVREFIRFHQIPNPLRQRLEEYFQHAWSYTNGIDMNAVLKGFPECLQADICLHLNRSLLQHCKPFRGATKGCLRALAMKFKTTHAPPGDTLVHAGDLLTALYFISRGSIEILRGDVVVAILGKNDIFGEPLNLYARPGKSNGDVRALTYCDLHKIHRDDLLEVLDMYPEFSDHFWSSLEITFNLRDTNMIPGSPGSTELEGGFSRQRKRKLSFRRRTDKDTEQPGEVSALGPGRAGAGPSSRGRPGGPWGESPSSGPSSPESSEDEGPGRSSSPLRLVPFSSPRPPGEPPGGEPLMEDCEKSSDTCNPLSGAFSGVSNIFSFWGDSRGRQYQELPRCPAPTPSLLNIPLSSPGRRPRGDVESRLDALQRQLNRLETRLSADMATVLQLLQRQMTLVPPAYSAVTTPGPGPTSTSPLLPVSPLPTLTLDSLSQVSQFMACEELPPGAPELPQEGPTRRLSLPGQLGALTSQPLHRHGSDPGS
For the compound `COc1ccc(CCC(=O)N2CCCC(Nc3ccc(OC)cc3)C2)cc1` (stereo not drawn), the “hERG current change (%, negative = inhibition) at 10uM” value is given as -6.96%.

`CCn1c(SCC(=O)N/N=C/c2cccs2)nc2ccccc21`: the “hERG current change (%, negative = inhibition) at 10uM” value is on record as -32%.

On to `Oc1c(Br)cc(Br)cc1C=Nc1cccc2ncccc12`, for which the “hERG current change (%, negative = inhibition) at 10uM” value is listed as 0.658%.

In the case of `COc1ccc(NC(=O)c2oc3ccccc3c2NC(=O)c2ccco2)c(OC)c1`, the “hERG current change (%, negative = inhibition) at 10uM” value is given as 6.32%.

For the compound `CCOc1ccc(C(=O)Nc2cc(C)c3c(=O)oc4ccccc4c3n2)cc1`, the “hERG current change (%, negative = inhibition) at 10uM” value is recorded as 11.5%.

In the case of `COc1ccc(NC(=O)CS(=O)CC(=O)NC2CCCc3ccccc32)cc1` (stereo not drawn), the “hERG current change (%, negative = inhibition) at 10uM” value is recorded as -10.3%.

For the compound `CN(CC(O)COC(c1ccccc1)c1ccccc1)C1CCCCC1` (stereo not drawn), the “hERG current change (%, negative = inhibition) at 10uM” value is -68.4%.

Regarding `Cc1ccc(CN2CCN(Cc3cnc(C)[nH]3)CC2CCO)cc1` (stereo not drawn), the “hERG current change (%, negative = inhibition) at 10uM” value was determined as 10.8%.

As to `C=CCn1c(O)c(C(C)=Nc2ccc(N(C)C)cc2)c(=O)[nH]c1=O`, the “hERG current change (%, negative = inhibition) at 10uM” value is recorded as -0.69%.

For `Cn1c(NCc2c[nH]c3ccccc23)nc2ccccc21`, the “hERG current change (%, negative = inhibition) at 10uM” value is listed as -28.7%.

As to `c1ccc(-c2nc(NCCCn3ccnc3)c3ccccc3n2)cc1`, the “hERG current change (%, negative = inhibition) at 10uM” value is -59.3%.

For the compound `CCOC(=O)c1cccc(NC(=O)C2(S(=O)(=O)c3ccc(Cl)cc3)CC2)c1`, the “hERG current change (%, negative = inhibition) at 10uM” value is recorded as -27.1%.

Consider `O=[N+]([O-])c1cccc(S(=O)(=O)NCCc2cccs2)c1`, for which the “hERG current change (%, negative = inhibition) at 10uM” value was -36.4%.

Turning to `C/C(=N\OCC(=O)Nn1c(C)nc2ccccc2c1=O)c1cccs1`, the “hERG current change (%, negative = inhibition) at 10uM” value is given as -5.66%.

With `CC1CCN(c2ccc(-c3ccc(NC(=O)c4ccco4)cc3)nn2)CC1`, the “hERG current change (%, negative = inhibition) at 10uM” value stood at 19%.

As to `COc1ccccc1OCC(=O)Nc1ccc(S(=O)(=O)N2CCN(C)CC2)cc1`, the “hERG current change (%, negative = inhibition) at 10uM” value is -15%.

Turning to `C[C@@H]1CC=C[C@H]2[C@H]1C(=O)N(Cc1ccccc1)[C@H]2c1cccc([N+](=O)[O-])c1`, the “hERG current change (%, negative = inhibition) at 10uM” value was -8.38%.

`COc1ccc(CC(=O)OCC(=O)NCc2ccco2)cc1OC`: the “hERG current change (%, negative = inhibition) at 10uM” value is listed as 16.6%.

Take `O=c1[nH]c(C2CCCN(S(=O)(=O)c3ccccc3Cl)C2)nc2c1nnn2Cc1ccc2c(c1)OCCO2` (stereo not drawn): the “hERG current change (%, negative = inhibition) at 10uM” value is 7%.

As for `Cc1ccc2c(c1)C(C)CC(C)(C)N2C(=O)CN1CCN(C)CC1.O=C(O)C(=O)O` (stereo not drawn), the “hERG current change (%, negative = inhibition) at 10uM” value was -23.6%.

In the case of `Cc1ccc(Sc2cnccc2C#N)cc1`, the “hERG current change (%, negative = inhibition) at 10uM” value amounted to 1.09%.

For `Cc1cc(C)c2c(n1)nn1c(C)c(CCC(=O)NCc3ccco3)c(C)nc21`, the “hERG current change (%, negative = inhibition) at 10uM” value is listed as -12.1%.

As to `CCn1cc(C(=O)c2cccs2)c2ccccc21`, the “hERG current change (%, negative = inhibition) at 10uM” value is on record as -1.99%.

For the compound `COc1ccc(NC(=S)Nc2ccc3nccnc3c2)cc1`, the “hERG current change (%, negative = inhibition) at 10uM” value was determined as 17.2%.
